# The campaign covered roughly 310,000 compounds. About 14,000 (4.5%) showed an effect of 50% or more. The effect is printed as a negative number. The list shows a part of the results.
# Target: human ether-à-go-go-related gene (hERG) potassium channel (human, UniProt Q12809)
# Test: primary screen, population patch clamp on CHO cells stably expressing hERG
# 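Note: peak tail current of the secondary pulse compared with the same well before compound.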
# human ether-à-go-go-related gene (hERG) potassium channel, sequence (Q12809 whole entry, looked up): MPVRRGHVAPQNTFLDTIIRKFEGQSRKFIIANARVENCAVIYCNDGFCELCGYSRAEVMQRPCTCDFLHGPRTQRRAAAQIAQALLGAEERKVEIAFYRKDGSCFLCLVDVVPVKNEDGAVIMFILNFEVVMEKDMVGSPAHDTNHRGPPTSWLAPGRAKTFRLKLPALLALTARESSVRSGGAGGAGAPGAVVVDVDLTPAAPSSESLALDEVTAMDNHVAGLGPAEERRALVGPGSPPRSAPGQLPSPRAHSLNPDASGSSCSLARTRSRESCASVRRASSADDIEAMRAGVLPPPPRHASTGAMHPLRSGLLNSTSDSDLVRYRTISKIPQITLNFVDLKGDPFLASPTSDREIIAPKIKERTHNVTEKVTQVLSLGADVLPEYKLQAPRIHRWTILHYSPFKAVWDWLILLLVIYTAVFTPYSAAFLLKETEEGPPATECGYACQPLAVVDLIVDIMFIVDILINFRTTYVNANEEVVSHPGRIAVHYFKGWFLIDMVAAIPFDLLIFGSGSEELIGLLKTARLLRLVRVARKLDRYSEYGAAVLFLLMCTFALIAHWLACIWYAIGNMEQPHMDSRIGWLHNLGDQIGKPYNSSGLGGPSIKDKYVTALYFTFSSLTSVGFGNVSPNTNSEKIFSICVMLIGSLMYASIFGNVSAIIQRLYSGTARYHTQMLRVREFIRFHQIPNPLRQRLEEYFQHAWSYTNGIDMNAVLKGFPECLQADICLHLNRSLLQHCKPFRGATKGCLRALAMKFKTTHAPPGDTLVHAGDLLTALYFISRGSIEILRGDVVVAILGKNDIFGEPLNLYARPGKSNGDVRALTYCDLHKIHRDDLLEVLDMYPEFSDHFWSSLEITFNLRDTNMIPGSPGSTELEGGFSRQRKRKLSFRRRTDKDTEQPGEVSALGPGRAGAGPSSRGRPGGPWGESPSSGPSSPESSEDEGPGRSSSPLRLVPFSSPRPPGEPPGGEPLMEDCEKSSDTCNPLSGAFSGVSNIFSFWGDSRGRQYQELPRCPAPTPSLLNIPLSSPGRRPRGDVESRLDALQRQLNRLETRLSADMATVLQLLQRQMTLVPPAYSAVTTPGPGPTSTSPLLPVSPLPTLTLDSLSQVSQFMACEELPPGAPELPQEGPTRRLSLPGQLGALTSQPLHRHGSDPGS
row,SMILES,"hERG current change (%, negative = inhibition) at 10uM"
1,COc1ccc2cc(C(=O)CS(=O)(=O)c3ccccc3)c(=O)oc2c1,14.2%
2,O=S(=O)(c1cccs1)N1CCCc2ccccc21,-12.9%
3,O=C(O)/C(=C\c1ccc(C(F)(F)F)cc1)c1ccc(S(=O)(=O)N2CCCC2)s1,14.8%
4,O=C(NCc1cccnc1)c1cc2nc(-c3ccc4c(c3)OCO4)cc(C(F)(F)F)n2n1,3.07%
5,CCc1cc2cc3c(cc2nc1SCC(=O)N1CCN(C(=O)c2ccco2)CC1)OCO3,-28.7%
6,COc1ccc(-c2c3c(=O)n(C)c(=O)n(C)c3cn2Cc2ccccn2)cc1,1.24%
7,CN1CCN(C(=O)c2cc(=O)c3cc(Cl)cc(Cl)c3o2)CC1,-31.3%
8,COc1cc2nc(/C=C/c3ccc(N(C)C)cc3)sc2cc1SC,5.81%
9,COC(=O)C1CCN(c2c([N+](=O)[O-])cc(C(F)(F)F)cc2[N+](=O)[O-])CC1,-7.59%
10,CCN(CC)C(=O)C1CCCN(C(=O)c2cc(COc3cccc(OC)c3)on2)C1 (stereo not shown),-35.9%
11,O=C(Nc1ccccc1C(=O)Nc1nncs1)c1ccccc1,22.2%
12,Nc1ncnc2nc(SCCN3CCCCC3)[nH]c12,-0.28%
13,O=[N+]([O-])c1ccc(N/N=C\c2ccccc2OCc2ccccc2)cc1,13.2%
14,CCOc1cc(/C=C2/C(=N)N3OC(C)=CC3=NC2=O)ccc1OC(=O)c1ccco1,-1.82%
15,COC(=O)COc1ccc(S(=O)(=O)NCc2cccnc2)cc1,0.304%
16,Cc1ccc2nc(Nc3nc(CSc4nnc(C)s4)cc(=O)[nH]3)nc(C)c2c1,-37.1%
17,COc1ccc(CCNC(=O)CSc2nn3c(=O)c(C)nnc3s2)cc1OC,6.31%
18,Cn1cnnc1SCc1ccc(-c2ccc(Br)cc2)o1,3.82%
19,CCOc1ccc(S(=O)(=O)NCCC2=CCCCC2)c2ccccc12,-2.82%
20,O=C(Cn1nnc(-c2ccccc2)n1)NNC(=O)c1ccccc1,-14.7%
21,Cc1ccc(NC(=O)C2CCCN(S(=O)(=O)c3ccc4c(c3)oc(=O)n4C)C2)nc1 (stereo not shown),-29.6%
22,O=C(Nc1sccc1C(=O)N1CCOCC1)c1cccnc1,-0.956%

row,SMILES,"hERG current change (%, negative = inhibition) at 10uM"
1,CS(=O)(=O)c1ccccc1-c1nnc(NC(=O)CCS(=O)(=O)c2ccc(Cl)cc2)o1,-10.1%
2,CCOC(=O)c1sc2nc(N3CCCC3)c3c(c2c1N)CC(C)(C)OC3,10.4%
3,Cc1cc(Br)c(S(=O)(=O)NCCN2CCOCC2)cc1C,7.8%
4,O=S(=O)(c1cccc2nsnc12)N1CCc2ccccc2C1,-34.8%
5,CC(C)Cn1c(SCC(=O)N(C)C2CCS(=O)(=O)C2)nc2cc(Cl)ccc2c1=O (stereo not shown),-31.5%
6,CCOc1ccccc1Nc1nnc(SCC(=O)N2CCCC2)s1,-2.79%
7,Cc1c(OC(C)C(=O)NCCCn2ccnc2)ccc2c3c(c(=O)oc12)CCC3 (stereo not shown),-0.297%
8,CCc1ccc(NC(=O)Cn2ncn3c(cc4ccccc43)c2=O)cc1,4.26%
9,Cn1nnc(NC(=S)NC(=O)c2cc3ccccc3o2)n1,17.7%
10,CC(C)COc1ccc(C(=O)NNC(=O)c2ccc(=O)[nH]c2)cc1,-1.31%
11,CCC(=O)Nc1ccc(C=C(C(C)=O)C(C)=O)cc1,16.9%
12,Cc1cc(C)c(S(=O)(=O)NC2CC(C)(C)NC(C)(C)C2)cc1Br,-15.8%
13,CCCc1cc(=O)[nH]c(SCC(=O)N2CCOCC2)n1,13.3%
14,CCOC(=O)C1CCCN(C(=O)CN2C(=O)COc3ccc(C(C)(C)C)cc32)C1 (stereo not shown),-21.4%
15,CCOC(=O)N1CCC(NC(=O)c2cc(C(=O)Nc3ccc(F)cc3F)ccc2CO)CC1,-6.2%
16,CNS(=O)(=O)c1cccc(C(=O)NCC(C)(C)N2CCCCC2)c1,9.27%
17,CCOc1ccc(CCNC(=O)COC(=O)CNS(=O)(=O)c2ccc(C)cc2)cc1OCC,-17.8%
18,C=CCOCCN(CCOCC=C)C1=NS(=O)(=O)c2ccccc21,12.5%
19,Cc1ccc(OC(=O)C2CCN(C(=O)c3ccccc3C)CC2)c(Br)c1,-21%
20,CC(=O)N1CCc2cc(S(=O)(=O)CCC(=O)NCc3ccc(Cl)cc3)ccc21,-9.26%
21,O=[N+]([O-])c1ccc2c3n([n+]([O-])c2c1)CCN=C3c1ccc(Cl)cc1,-29.6%
22,O=C(Cc1ccc(Cl)c(Cl)c1)N/N=C/c1cccnc1,-40%

row,SMILES,"hERG current change (%, negative = inhibition) at 10uM"
1,Cc1ccc(NC(=O)c2cc(-n3cnnc3)ccc2Cl)cc1,-15.6%
2,COc1cccc(N2C(=O)CC(Sc3nc(C)cc(C)n3)C2=O)c1 (stereo not shown),10.6%
3,COc1cc(C(=O)O/N=C(\N)c2ccccn2)cc(OC)c1OC,7.17%
4,COC(=O)/C=C/CC(C)OS(N)(=O)=O (stereo not shown),13%
5,CC/C(=N/Nc1cccc(C)c1)c1cnnc(SC)n1,8.51%
6,COc1nnc(-c2ccc(C)c(S(=O)(=O)NCC3CCCO3)c2)c2ccccc12 (stereo not shown),-69.5%
7,COc1ccc(N2CC(C(=O)NC3=NCCS3)CC2=O)cc1 (stereo not shown),2.12%
8,CC(NS(=O)(=O)c1ccccc1)C(N)=O (stereo not shown),-6.6%
9,Cc1ccc2nc3c(cc2c1)c(NC(=O)c1ccccn1)nn3CC(C)C,-9.05%
10,CCOC(=O)CC(=O)NC1(Cc2ccc(O)cc2)CCCCC1,1.06%
11,CC(C)CC1CCCCC1OC(=O)C[N+]1(C)CCCCC1.[I-] (stereo not shown),-3.45%
12,Cc1cc(C)c2c(n1)SCC(=O)N2CC(=O)Nc1ccc(C)c(C)c1,-1.35%
13,CC(=O)Nc1ccc(N/C=C/C(=O)C(C)(C)C)cc1,-4.12%
14,CCn1c(C(=O)O)c(CC(=O)Nc2ccccc2F)c2ccccc21,16%
15,Cn1cc(C(=O)Nc2ccc(Cl)cc2)c(C(F)(F)F)n1,4.82%
16,Cc1cc(C)cc(-n2c(C)cc(C(=S)N3CCOCC3)c2C)c1,-21.1%
17,CC1CCC(NC(=O)C2CCN(c3cnccn3)CC2)CC1 (stereo not shown),-3.55%
18,Cc1ccccc1NC(=O)/C=C/c1cccs1,-33.1%
19,CCCn1c(=O)c2ccccc2n2c(SCC(=O)c3ccc(CC)cc3)nnc12,-9.29%
20,S=C(NCc1ccccc1)Nc1nccs1,1.6%
21,O=C(COc1ccc(F)cc1Br)N1CCN(S(=O)(=O)/C=C/c2ccccc2)CC1,-19.7%
22,O=C(NCc1ccccn1)Nc1ccc(Br)cc1,9.62%

row,SMILES,"hERG current change (%, negative = inhibition) at 10uM"
1,ONC(=Nc1ccc(Cl)cc1)c1ccccc1,-3.76%
2,Cc1cccc(OCc2nnc(SCC(=O)Nc3cccc(C(=O)N4CCOCC4)c3)n2C)c1,13.6%
3,COC(=O)c1ccccc1NC(=O)Cn1nnc(-c2ccc3c(c2)OCO3)n1,2.29%
4,O=C(Oc1ccc(C(=S)N2CCOCC2)cc1)c1ccc([N+](=O)[O-])cc1[N+](=O)[O-],8.56%
5,CCc1c(C(=O)N/N=C/c2sccc2C)nnn1-c1nonc1N,14.9%
6,CCOc1ccccc1Nc1nc(-c2sc(C)nc2C)cs1,20.3%
7,CCOc1ccc(C(=O)Nc2c3c(nn2C(C)(C)C)CSC3)cc1OCC,-1.49%
8,CCc1noc(C)c1C(=O)N1CCN(S(=O)(=O)c2cccc(C(F)(F)F)c2)CC1,-9.29%
9,COc1ccccc1OCC(=O)Nc1ccc(S(=O)(=O)NC(C)=O)cc1,13.3%
10,O=S(=O)(Nc1c(O)ccc2ccccc12)c1ccc(F)cc1,-17.7%
11,Cc1nnc(SCC(=O)NC23CC4CC(CC(C4)C2)C3)n(N)c1=O,10.1%
12,O=C(CSc1ccc(-c2nc3ccccc3[nH]2)cn1)N1CCN(C(=O)c2ccco2)CC1,-68.4%
13,Cc1sc2ncn(CC(=O)OC(C)C(=O)NC(C)(C)C)c(=O)c2c1C (stereo not shown),12.8%
14,Cc1nn(C)c(C(=O)N/N=C/c2ccccn2)c1[N+](=O)[O-],21.3%
15,COc1ccc(C/C(O)=C(\C#N)c2nc3ccccc3[nH]2)cc1OC,21.9%
16,O=C(O)C(=O)O.c1cc2c(cc1OCCNC1CCCC1)CCC2,0.00128%
17,COc1ccc(/C=N/OCC(=O)NCc2cccs2)c(OC)c1,-0.849%
18,CCC(=O)NCc1c(C)c(C)n(Cc2ccccc2)c1-n1cccc1,0.898%
19,CCn1c(CC(=O)Nc2ccc(Cl)c(Cl)c2)nnc1SCc1ccc(Cl)cc1,5.87%
20,CCOC(=O)Cc1csc(SC(C)C(=O)NCC(=O)Nc2ccc(F)c(F)c2F)n1 (stereo not shown),14.9%
21,Cc1cc(C)cc(NC(=O)N2CCCC2C(=O)Nc2ccc(-n3cnnn3)cc2)c1 (stereo not shown),-54.1%
22,O=C(NCc1ccc(C(F)(F)F)cc1)C12CN(Cc3ccccc3)CC1C(c1cccc([N+](=O)[O-])c1)=NO2 (stereo not shown),10.2%

# Source: paper PMC4336329 (PLoS ONE, 2015)
